Measurements taken from publication PMC6919601, “Identification of Plasmodium dipeptidyl aminopeptidase allosteric inhibitors by high throughput screening” (PLoS ONE, 2019).
“And” between values parts separate entries of the source, which are not always exact repeats. Identical values can stand only once. Among all 110,000 compounds or so, about 230 (0.21%) showed an effect of 50% or more. The list shows a part of the results.

These compounds were tested against DPAP1 (Plasmodium falciparum, UniProt Q8IIJ9) (assay: primary screen, percent inhibition; read by cleavage of a fluorogenic dipeptide substrate; higher = more effect of the substance).
Parameters: species or system P. falciparum D10 trophozoite lysates; single well
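Also: 30 min substrate incubation versus DMSO and 10 µM JCP410 controls.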

DPAP1, sequence (Q8IIJ9 whole entry, looked up): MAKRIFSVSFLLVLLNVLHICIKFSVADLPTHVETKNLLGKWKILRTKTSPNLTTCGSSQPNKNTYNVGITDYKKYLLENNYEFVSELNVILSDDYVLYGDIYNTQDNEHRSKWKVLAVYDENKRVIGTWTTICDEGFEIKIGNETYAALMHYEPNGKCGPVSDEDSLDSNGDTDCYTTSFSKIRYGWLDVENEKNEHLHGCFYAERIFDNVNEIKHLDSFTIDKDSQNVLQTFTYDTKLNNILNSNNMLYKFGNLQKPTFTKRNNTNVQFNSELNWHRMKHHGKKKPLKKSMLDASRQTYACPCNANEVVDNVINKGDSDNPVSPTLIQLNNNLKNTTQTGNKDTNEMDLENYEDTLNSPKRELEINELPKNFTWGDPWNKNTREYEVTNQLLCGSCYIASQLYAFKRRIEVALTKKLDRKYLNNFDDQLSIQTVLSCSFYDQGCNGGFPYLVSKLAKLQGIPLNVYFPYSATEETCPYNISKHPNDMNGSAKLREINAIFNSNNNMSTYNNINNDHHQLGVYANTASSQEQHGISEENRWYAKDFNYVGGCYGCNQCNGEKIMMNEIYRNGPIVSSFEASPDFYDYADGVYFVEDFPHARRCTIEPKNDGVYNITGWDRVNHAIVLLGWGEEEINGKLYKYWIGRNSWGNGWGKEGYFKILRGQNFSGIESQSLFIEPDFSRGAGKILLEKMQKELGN

SMILES | % Inhibition @ 10 uM
CCCOC1C=CC(Oc2nc(NCC)cc(N(C)C)n2)=NN1 (stereo not drawn) | -4.62%
COc1ccc(NC(=O)CCCOc2ccc(Cl)cc2Cl)cc1 | 2.98%
CC1CCN(C(=O)Cn2ncc3c4ccccc4n(C)c3c2=O)CC1 | -1.92%
COC(=O)Nc1ccccc1C(=O)Nc1cccc(C)c1 | -2.76%
O=C(Nc1cc(NC(=O)c2ccc(Br)o2)ccc1Cl)c1ccccc1 | 3.24%
COc1ccc(OC)c(-c2noc(N3CCN(C4CCCCC4)CC3)n2)c1 | 4.91%
Cc1c(C(=O)N2CCCCC2)sc(NC(=O)c2ccc(Cl)cc2)c1C#N | 7.17%
C#CC1(OC(=O)c2ccccc2)CC(C)N(C)CC1C (stereo not drawn) | -4.35%
O=C(O)c1ccc2c(c1)C(=O)N(c1ccc(Oc3ccccc3)cc1)C2=O | 3.25%
CN1CCN(c2ccc(NC(=O)CCC(=O)O)cc2)CC1 | -3.92%
COc1ccc2c(Sc3ccccc3)c(C(=O)NCC3CCCO3)[nH]c2c1 (stereo not drawn) | 0.0811%
CC(C)c1c(O)nc2c(c1O)C(=O)CC(C)(C)C2 | -0.25%
CC1(C)CC2(C)CC3=C([C@H](CO)C(C)(C)C3)C(CO)(C1)C2 (stereo partly drawn) | -3.26%
CCn1c(C)nc2cc(-c3ccccc3)ccc21 | -4.96%
O=S(=O)(NC1CCCCC1)c1cccc2nsnc12 | 1.7%
COc1ccccc1/C=C/C1=NC(=C\c2cccnc2)/C(=O)O1 | 19.3%
C#CCSc1nc2c(cc1C#N)CCCCC2 | 1%
CC1CCC(C(=O)NC(Cc2ccccc2)C(=O)NCc2ccccn2)CC1 (stereo not drawn) | -13.6%
CN1C(C(=O)N2CCN(C(=O)C(C)(C)C)CC2)=CC(c2ccc(F)cc2)=NS1(=O)=O | 0.655%
COc1cc(OC)cc(C(=O)Nc2ccc3c(c2)oc2ccccc23)c1 | -4.91%
Cc1[nH]nc2c1C(c1ccc(-c3ccc(Cl)cc3)o1)C(C#N)=C(N)O2 (stereo not drawn) | 2.51%
CC1=C(C(=O)Nc2nc3ccccc3s2)C(c2ccccc2)C2=C(O)CCCC2=N1 (stereo not drawn) | -0.661%
CC1CC(=O)C2=C(C1)OC(N)=C(C#N)C2c1cccs1 (stereo not drawn) | 1.96%
CCSc1nc(N2CCOCC2)c2c(c1C#N)CC(C)(C)SC2 | -0.968%
CCCN1CCN(C(=O)c2cccc3c2C(=O)N(Cc2cccnc2)C3)CC1 | -0.719%
CC1CCCC(NCC(C)(C)CN(C)C)C1 (stereo not drawn) | -1.56%

SMILES | % Inhibition @ 10 uM
CC(C)(C)c1cc(C(=O)CSc2nncn2-c2ccccc2)cc(C(C)(C)C)c1O | 3.7%
CN1CCCC1CCNC1C2CC3CC(C2)CC1C3 (stereo not drawn) | -4.14%
Cc1nn(-c2ccccc2)c2c1C1(C(=O)Nc3ccccc31)C(C#N)=C(N)O2 (stereo not drawn) | -3.77%
COC(=O)c1ccc(C2NC(=O)c3[nH]nc(-c4ccc(C)cc4)c32)cc1 (stereo not drawn) | -9.43%
CCOc1cc2c(cc1OCC)C(C(=O)O)C(c1cc(OC)c(OC)cc1OC)N(C)C2=O (stereo not drawn) | 0.231%
Cc1cccc(NC(=O)CCCCC(=O)Nc2cccc(C)c2)c1 | 3.92%
CC(NC(=O)C(=O)NCCN(C)C)C(c1cccs1)N1CCOCC1 (stereo not drawn) | 3.96%
O=C1C(=O)N(CCN2CCCCC2)c2ccccc21 | 2.92%
CCOc1ccc(CCNC(=O)C(CC)n2nc(C)c3c(C)n(-c4ccc(C)cc4)nc3c2=O)cc1 (stereo not drawn) | -2.49%
O=C(O)c1cc(S(=O)(=O)N2CCCC2)ccc1Cl | -1.62%
CC(CCc1ccccc1)N1CCCN(C)CC1 (stereo not drawn) | -3.6%
CCOP(=O)(CCC(=O)OC)OCC | -4.01%
O=c1c2ccccc2nc(-c2ccccc2)n1-c1ccncc1 | 1.67%
CN1C2=C(C(=O)CCC2)C(c2cc(Br)ccc2OCC(=O)O)C2=C1CCCC2=O | 3.49%
O=C(Nc1ccc2c(c1)ncn2-c1ccccc1)c1ccco1 | 1.83%
OC1CCN(Cc2ccc(F)cc2)CC1 | 3.16%
COc1cc(C2C(C#N)=C(C)NC3=C2S(=O)(=O)c2ccccc23)cc(OC)c1OC (stereo not drawn) | 3.05%
COc1ccccc1-c1nn2c(-c3ccccc3Cl)nnc2s1 | -1.69%
C=CCc1cccc(C)c1OCCCN1CCC(C)CC1 | -1.82%
C(=C\c1ccccc1)/CN1CCN(Cc2ccnc3ccccc23)CC1 | 4.68%
O=S(=O)(Nc1ccccn1)c1cccc(C(F)(F)F)c1 | 0.716%
COc1cc(-c2ncnn2-c2sc3c(c2C#N)CCCC3)ccc1O | 3.82%
Cc1ccc(CS(=O)(=O)c2cn(CC(=O)NC(C)(C)C)c3ccccc23)cc1 | 4.68%
Cc1cc(C(=O)NC2CCCCCC2)c2c(C)nn(-c3ccccc3)c2n1 | -4.1%
Cc1nnc(SCC(=O)NCCc2ccccc2Cl)c2nn(-c3ccccc3)c(C)c12 | -1.23%
CCN1C(=O)CC(C(=O)Nc2ccc(C(=O)O)cc2)S/C1=N\c1ccccc1 (stereo not drawn) | 1.89%

SMILES | % Inhibition @ 10 uM
CN(C)C1CCCCC1NS(=O)(=O)c1ccccc1 (stereo not drawn) | 5.81%
Cc1ccccc1Cn1c(C)c(CNC2CCC(C)CC2)c(C(=O)O)c1C (stereo not drawn) | -5.49%
COCCCN1C(=O)C(O)=C(C(=O)c2ccc(C)cc2)C1c1ccc(Cl)cc1Cl (stereo not drawn) | 2.03%
CCCN1CCC(N2CCC(Cc3ccccc3)CC2)CC1 | 2.94%
CCc1nc2ccc(C(=O)NCc3ccccc3F)cc2nc1CC | -3.26%
CCCCNC(=O)c1ccccc1NC(=O)c1ccc(C)cc1 | -1.26%
COc1cc(C2CC(c3c(O)cc(C)oc3=O)=NCCS2)ccc1O (stereo not drawn) | -0.0372%
Cn1ncc(Br)c1C(=O)Nc1cccc2ccccc12 | -2.58%
O=C(c1ccc2c(c1)ncn2-c1ccc(OCc2ccccc2)cc1)N1CCC2(CC1)OCCO2 | 2.8%
CCC1(C)CC(=O)c2c(ccc3oc(C(=O)NCCCN4CCOCC4)c(C)c23)O1 (stereo not drawn) | -0.447%
CCN(CC)CCCCOc1cc(C)cc(C)c1C | -9.84%
Cc1ccc(S(=O)(=O)N2CCCC(C(=O)NCCc3ccc(Cl)cc3)C2)cc1 (stereo not drawn) | -4.97%
Cc1c(CNCc2ccccc2F)c(C(=O)O)c(C)n1Cc1ccccc1 | 4.79%
COCCN1C(=O)c2ccccc2C(C(=O)NCCN(C)C)C1c1c[nH]c2ccccc12 (stereo not drawn) | 1.86%
CCSC1=NC2(CCN(C(=O)NCc3ccccc3)CC2)N=C1c1ccc(OC)cc1 | 1.67%
Cc1ccccc1SCCC(NC(=O)c1ccccc1)C(=O)NCC#N (stereo not drawn) | -5.21%
Cc1ccc(-c2cc(C(F)F)n3ncc(C(=O)NC(C)(C)C)c3n2)cc1 | -11.5%
CC1=CC(C)C2C(=O)N(c3cccnc3)C(=O)C2C1 (stereo not drawn) | -3.14%
Cc1cccc(Cn2c(SC(C)C)nc3c2c(=O)[nH]c(=O)n3C)c1 | -2.16%
Cc1nn(CC(=O)O)c(C)c1NC(=O)c1cccs1 | 0.9%
O=C1c2cccnc2C(=O)N1c1ccc(F)cc1 | -2.8%
COc1ccc2c(c1)C1(Nc3ccccc3C(=O)N1Cc1ccccc1)C(=O)N2 (stereo not drawn) | 3.5%
CC(C)(C)c1nc(O)c2c3c(sc2n1)CCCC3 | 0.51%
C/N=C1\SC(CC(=O)Nc2ccc(C(C)=O)cc2)C(=O)N1C (stereo not drawn) | -5.51%
CN1CCc2nc(SCC(=O)Nc3ccc(Cl)cc3)c(C#N)c(-c3ccsc3)c2C1 | -6.51%
O=C(NC1CCCCC1)C1CCN(C(=O)c2ccccc2)CC1 | -7.56%

SMILES | % Inhibition @ 10 uM
CC1=NN2C(=N)/C(=C\c3cccn3-c3cc(C)cc(C)c3)C(=O)N=C2S1 | 1.9%
Cc1cccc(C(=O)NCCc2ccccc2)c1 | -1.7%
CC(=O)C1=C(O)C(=O)N(CCCO)C1c1ccccc1F (stereo not drawn) | -2.99%
CC1CC(C)CN(S(=O)(=O)c2ccc(F)c(C(=O)NCc3ccccc3Cl)c2)C1 (stereo not drawn) | 1.42%
COc1cccc(Nc2nc(N)c3ccccc3n2)c1 | -7.96%
COc1ccc(C2=N/C(=C\c3ccc(OC)c(OC)c3OC)C(=O)O2)cc1OC | -2.27%
CC1CN(C2CC3CCC2C3)CC(C)O1 (stereo not drawn) | 2.22%
CC1CC(C)CN(C/C=C/c2ccc(N(C)C)cc2)C1 (stereo not drawn) | 2.1%
CCCCN(C)C1CCN(CC)CC1 | -3.6%
CCC1CCC(N2CCCCC2CO)CC1 (stereo not drawn) | -3.5%
COc1ccc(OCc2cccc(C(=O)N3N=C(C)CC3(O)C(F)(F)F)c2)cc1 (stereo not drawn) | -4.72%
Cc1ccc(C2=NS(=O)(=O)N(C)C(C(=O)NC(C)(C)CO)=C2)cc1 | 2.32%
CCOC(=O)N1CCC(NC(=O)C(C)n2nc(C)c3sc4ccccc4c3c2=O)CC1 (stereo not drawn) | -1.49%
Cc1cc(C)n(Cc2ccc(C(=O)Nc3c(F)cc(F)cc3Br)o2)n1 | 2.92%
COc1ccc(/C=C/c2cc(C(F)(F)F)nc(O)n2)cc1 | -2.54% and 2.41%
Cc1cc(-c2ccccc2)n2ncc(-c3ccccc3)c2n1 | -7.49%
CNS(=O)(=O)c1cn(CC(=O)NCc2cccnc2)cc1S(=O)(=O)NC | -1.95%
COCCCNc1nc2c(-c3ccc(C)cc3)nnn2c2ccccc12 | 2.04%
CC(C)(C)c1ccc(C(CC(=O)O)NC(=O)C23CC4CC(CC(C4)C2)C3)cc1 (stereo not drawn) | 0.9%
O=[N+]([O-])c1ccc2nccc(S)c2c1 | 26%
CS/C(NC1CCCCC1)=C(\C#N)S(=O)(=O)c1ccccc1 | -2.83%
CCN(CC)C(=O)C1CCN(S(=O)(=O)c2c(C)cc(C)cc2C)CC1 | -0.231%
CCOc1cccc2cc(S(=O)(=O)c3ccc(F)c(C)c3)c(=O)oc12 | 0.44%
O=C(CN1CCN(Cc2ccc(F)cc2Cl)C1=O)NCCc1ccccc1 | -0.984%
